# Source: the supplement of paper PMC8728848
# The other results are listed elsewhere or left out.
# Key:
# Assay in all cases: glycan array binding signal (z-score within array); higher = stronger binding
# Conditions in all cases: glycan notation: IUPAC condensed, linker removed
# [1] = target: Gal(b1-4)GlcNAc(b1-3)Gal(b1-4)GlcNAc(b1-3)[Gal(b1-4)GlcNAc(b1-3)Gal(b1-4)GlcNAc(b1-6)]GalNAc
# Method in brief: (§1)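 Arrays were curated from the Consortium for Functional Glycomics database, 3228 in total, and kept only where the protein sequence was available. Binding is expressed as a within-array Z-score. This score was averaged across arrays of the same protein sequence at different concentrations or buffers and across linkers, and negative values can be read as non-binding.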
# [2] = target: Gal(b1-4)GlcNAc(b1-3)Gal(b1-4)GlcNAc(b1-6)[Gal(b1-3)]GalNAc
# Method in brief: as §1
# [3] = target: Gal(b1-4)GlcNAc(b1-3)Gal(b1-4)[Fuc(a1-3)]GlcNAc(b1-3)Gal(b1-4)[Fuc(a1-3)]GlcNAc
# Method in brief: as §1
# [4] = target: Gal(b1-4)GlcNAc(b1-3)GalNAc
# Method in brief: as §1
# [5] = target: Gal(b1-4)GlcNAc(b1-3)[Fuc(a1-3)GlcNAc(b1-6)]Gal(b1-4)Glc
# Method in brief: as §1
# [6] = target: Gal(b1-4)GlcNAc(b1-3)[Gal(b1-4)GlcNAc(b1-6)]Gal(b1-4)GlcNAc
# Method in brief: as §1
# [7] = target: Gal(b1-4)GlcNAc(b1-3)[GlcNAc(b1-6)]Gal(b1-4)GlcNAc
# Method in brief: as §1
# [8] = target: Gal(b1-4)GlcNAc(b1-6)Gal(b1-4)GlcNAc
# Method in brief: as §1
# [9] = target: Gal(b1-4)GlcNAc(b1-6)GalNAc
# Method in brief: as §1
# [10] = target: Gal(b1-4)GlcNAc(b1-6)[Gal(b1-3)]GalNAc
# Method in brief: as §1
# [11] = target: Gal(b1-4)GlcNAc(b1-6)[Gal(b1-4)GlcNAc(b1-3)]GalNAc
# Method in brief: as §1
# [12] = target: Gal(b1-4)GlcNAc6P
# Method in brief: as §1
# [13] = target: Gal(b1-6)Gal
# Method in brief: as §1
# [14] = target: Gal3S(b1-3)GalNAc
# Method in brief: as §1
# [15] = target: Gal3S(b1-3)GlcNAc
# Method in brief: as §1
# [16] = target: Gal3S(b1-3)[Fuc(a1-4)]GlcNAc
# Method in brief: as §1
# [17] = target: Gal3S(b1-4)Glc
# Method in brief: as §1
# [18] = target: Gal3S(b1-4)Glc6S
# Method in brief: as §1
# [19] = target: Gal3S(b1-4)GlcNAc
# Method in brief: as §1
# [20] = target: Gal3S(b1-4)[Fuc(a1-3)]Glc6S
# Method in brief: as §1
# [21] = target: Gal3S(b1-4)[Fuc(a1-3)]GlcNAc
# Method in brief: as §1
# [22] = target: Gal3S(b1-4)[Fuc(a1-3)]GlcNAc6S
# Method in brief: as §1
# [23] = target: Gal3S4S(b1-4)GlcNAc
# Method in brief: as §1
# [24] = target: Gal3S6S(b1-4)GlcNAc
# Method in brief: as §1
# [25] = target: Gal3S6S(b1-4)GlcNAc6S
# Method in brief: as §1
# [26] = target: Gal4S(b1-4)GlcNAc
# Method in brief: as §1
# [27] = target: Gal4S6S(b1-4)GlcNAc
# Method in brief: as §1
# [28] = target: Gal6P(b1-4)GlcNAc
# Method in brief: as §1
# [29] = target: Gal6S(b1-3)GlcNAc
# Method in brief: as §1
# [30] = target: Gal6S(b1-3)GlcNAc6S
# Method in brief: as §1
# [31] = target: Gal6S(b1-4)Glc
# Method in brief: as §1
# [32] = target: Gal6S(b1-4)Glc6S
# Method in brief: as §1
# [33] = target: Gal6S(b1-4)GlcNAc
# Method in brief: as §1
# [34] = target: Gal6S(b1-4)GlcNAc6S
# Method in brief: as §1
# [35] = target: GalNAc(a1-3)Gal
# Method in brief: as §1
# [36] = target: GalNAc(a1-3)GalNAc
# Method in brief: as §1
# [37] = target: GalNAc(a1-3)GalNAc(b1-3)Gal(a1-4)Gal(b1-4)Glc
# Method in brief: as §1
# [38] = target: GalNAc(a1-3)GalNAc(b1-3)Gal(a1-4)Gal(b1-4)GlcNAc
# Method in brief: as §1
# [39] = target: GalNAc(b1-3)Gal
# Method in brief: as §1
# [40] = target: GalNAc(b1-3)Gal(a1-4)Gal(b1-4)GlcNAc
# Method in brief: as §1
# [41] = target: GalNAc(b1-3)Gal(a1-4)Gal(b1-4)GlcNAc(b1-3)Gal(b1-4)Glc
# Method in brief: as §1
# [42] = target: GalNAc(b1-3)Gal(a1-6)Gal(b1-4)Glc
# Method in brief: as §1
# [43] = target: GalNAc(b1-3)GalNAc
# Method in brief: as §1
# [44] = target: GalNAc(b1-3)GlcNAc
# Method in brief: as §1
# [45] = target: GalNAc(b1-4)Gal(b1-4)Glc
# Method in brief: as §1
binder,measurement,setting,value
"CFEM-SCL (Saccharomyces cerevisiae), O13547 (protein) MRATTLLSSVVSLALLSKEVLATPPACLLACVAQVGKSSSTCDSLNQVTCYCEHENSAVKKCLDSICPNNDADAAYSAFKSSCSEQNASLGD",glycan array binding signal (z-score),[1],0.143
same,glycan array binding signal (z-score),[2],0.781
same,glycan array binding signal (z-score),[3],-0.13
same,glycan array binding signal (z-score),[4],-0.111
same,glycan array binding signal (z-score),[5],-0.299
same,glycan array binding signal (z-score),[6],-0.139
same,glycan array binding signal (z-score),[7],-0.253
same,glycan array binding signal (z-score),[8],0.08
same,glycan array binding signal (z-score),[9],0.004
same,glycan array binding signal (z-score),[10],1.55
same,glycan array binding signal (z-score),[11],0.018
same,glycan array binding signal (z-score),[12],-0.237
same,glycan array binding signal (z-score),[13],0.31
same,glycan array binding signal (z-score),[14],-0.244
same,glycan array binding signal (z-score),[15],-0.282
same,glycan array binding signal (z-score),[16],-0.167
same,glycan array binding signal (z-score),[17],-0.311
same,glycan array binding signal (z-score),[18],-0.267
same,glycan array binding signal (z-score),[19],-0.261
same,glycan array binding signal (z-score),[20],0.629
same,glycan array binding signal (z-score),[21],-0.246
same,glycan array binding signal (z-score),[22],-0.242
same,glycan array binding signal (z-score),[23],-0.32
same,glycan array binding signal (z-score),[24],-0.204
same,glycan array binding signal (z-score),[25],-0.005
same,glycan array binding signal (z-score),[26],-0.228
same,glycan array binding signal (z-score),[27],-0.239
same,glycan array binding signal (z-score),[28],-0.3
same,glycan array binding signal (z-score),[29],-0.146
same,glycan array binding signal (z-score),[30],-0.092
same,glycan array binding signal (z-score),[31],0.321
same,glycan array binding signal (z-score),[32],1.11
same,glycan array binding signal (z-score),[33],-0.027
same,glycan array binding signal (z-score),[34],0.633
same,glycan array binding signal (z-score),[35],-0.222
same,glycan array binding signal (z-score),[36],-0.242
same,glycan array binding signal (z-score),[37],-0.264
same,glycan array binding signal (z-score),[38],-0.281
same,glycan array binding signal (z-score),[39],-0.194
same,glycan array binding signal (z-score),[40],-0.287
same,glycan array binding signal (z-score),[41],-0.344
same,glycan array binding signal (z-score),[42],-0.194
same,glycan array binding signal (z-score),[43],-0.164
same,glycan array binding signal (z-score),[44],-0.221
same,glycan array binding signal (z-score),[45],-0.137
